Assay results published in the supplement of paper PMC10126150.
Values marked as one replicate rest on one cluster of the flow cell; about a third of the high ones do not repeat.
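Also: ATP exposure 15 min at 22 °C before imaging.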

These sequences were tested on ATP (assay: switch fluorescence ratio, 500 uM ATP over buffer (Cy3 cluster intensity, sum of 5 cycles each) (fold (ratio)); higher = stronger signal-on switching upon ATP binding; sequences stand for … in TCGTCGGCAGCGTCAGATGTGTATAAGAGACAGTTTTTTTTTTTTTTTTTTTTTTTTT…TC). Conditions: aptamer strand: ATP DNA aptamer (quencher-CACCTGGGGGAGTATTGCGGAGGAAGG + anchor), 100 nM annealed; ATP concentration: 500 uM; one replicate.
Outline: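 The fluorescence ratio divides summed target-cycle Cy3 intensity by summed buffer-cycle Cy3 intensity for each cluster and is averaged per switch-domain sequence. Cy3-labelled switching-strand clusters on a modified Illumina MiSeq flow-cell were annealed to 100 nM quencher-labelled ATP aptamer, then imaged in selection buffer and again after 15 min with 500 uM ATP at 22 °C. Five such cycles were run, with NaOH stripping and re-annealing between them, and clusters outside 100-1000 RFU were excluded.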
For CACATGAAGG, the switch fluorescence ratio was 0.978. CACATGAGGA was tested, and the switch fluorescence ratio was 1.03. CACATGGACT was tested, and the switch fluorescence ratio was 1.04. Sequence CACATGGGT has a switch fluorescence ratio of 0.949. For CACATGTAAG, the switch fluorescence ratio was 0.977. CACATGTGAT showed a switch fluorescence ratio of 1.08. In the case of CACATTGGTC, the switch fluorescence ratio is reported as 0.99. For CACATTTTAT, the switch fluorescence ratio was 1.01. Work on CACCATATAC yielded a switch fluorescence ratio of 2.73. CACCATTTGC was tested, and the switch fluorescence ratio was 1.01. CACCCAATTA gave a switch fluorescence ratio of 1.05. CACCCCGATG was tested, and the switch fluorescence ratio was 1.25. For CACCGAGAAT, the switch fluorescence ratio was 1.03. Sequence CACCGCCCAG has a switch fluorescence ratio of 1.38. For CACCGGTCTG, the switch fluorescence ratio was 1.03. CACCGTCTGC gave a switch fluorescence ratio of 1.05. Sequence CACCGTGGGG has a switch fluorescence ratio of 1.02. With CACCTCAATT the switch fluorescence ratio was 1.1. Sequence CACCTCCGCC has a switch fluorescence ratio of 5.31. Sequence CACCTTATCT has a switch fluorescence ratio of 1.08. CACGAACGGG was tested, and the switch fluorescence ratio was 1.45. With CACGAAGGGA the switch fluorescence ratio was 0.938. CACGAATCGA gave a switch fluorescence ratio of 0.996. For CACGACATTT, the switch fluorescence ratio was 1.09. CACGACTCTC was tested, and the switch fluorescence ratio was 1.03. For CACGACTTTC, the switch fluorescence ratio was 1.01. CACGATTCGG showed a switch fluorescence ratio of 1.01. CACGCACTGA gave a switch fluorescence ratio of 1.63. For CACGCAGAAG, the switch fluorescence ratio was 1.22. In the case of CACGCATCTT, the switch fluorescence ratio is reported as 0.99. Sequence CACGCATTTC has a switch fluorescence ratio of 4.41. With CACGCCAGAC the switch fluorescence ratio was 4.36. In the case of CACGCCGTCA, the switch fluorescence ratio is reported as 1. In the case of CACGCGCCAA, the switch fluorescence ratio is reported as 1.23. For CACGGAACGA, the switch fluorescence ratio was 1.05. In the case of CACGGATGTG, the switch fluorescence ratio is reported as 1.04. CACGGATTAA was tested, and the switch fluorescence ratio was 1.03. In the case of CACGGCCTCA, the switch fluorescence ratio is reported as 1.04. CACGGGCGGT gave a switch fluorescence ratio of 1.02. CACGGGCTTA gave a switch fluorescence ratio of 1.03. With CACGTAATTT the switch fluorescence ratio was 1.21. Sequence CACGTAGGGC has a switch fluorescence ratio of 1.01. CACGTAGGGT showed a switch fluorescence ratio of 1.1. In the case of CACGTAGGTA, the switch fluorescence ratio is reported as 1.1. CACGTATCGC was tested, and the switch fluorescence ratio was 1.11. For CACGTCCACT, the switch fluorescence ratio was 1.4. CACGTCCCTT showed a switch fluorescence ratio of 1.01. In the case of CACGTCCTAC, the switch fluorescence ratio is reported as 1.29. CACGTCGTAT showed a switch fluorescence ratio of 1.01. CACGTTTCT gave a switch fluorescence ratio of 0.994. Work on CACGTTTTCA yielded a switch fluorescence ratio of 1.15. CACGTTTTGG gave a switch fluorescence ratio of 0.977. For CACTAAGGTA, the switch fluorescence ratio was 1.03. CACTAAGTTG gave a switch fluorescence ratio of 1.02. CACTAGACTA showed a switch fluorescence ratio of 1.02. CACTAGCCTA gave a switch fluorescence ratio of 0.998. Work on CACTATTGAA yielded a switch fluorescence ratio of 0.985. In the case of CACTCCTCCC, the switch fluorescence ratio is reported as 1.83. CACTCTTGTT was tested, and the switch fluorescence ratio was 0.989. CACTGACT gave a switch fluorescence ratio of 1.34. Work on CACTGCTATA yielded a switch fluorescence ratio of 1.46. CACTGGCCCA was tested, and the switch fluorescence ratio was 0.965. CACTGGTGTC showed a switch fluorescence ratio of 1.16. Work on CACTGTATGG yielded a switch fluorescence ratio of 1.2. With CACTGTCTTT the switch fluorescence ratio was 1.01. CACTGTTACA showed a switch fluorescence ratio of 1.35. CACTTACGTA gave a switch fluorescence ratio of 1.43. Work on CACTTATCAA yielded a switch fluorescence ratio of 1.05. CACTTCAGGG was tested, and the switch fluorescence ratio was 1.01. CACTTGTGGC was tested, and the switch fluorescence ratio was 0.985. CACTTTATCG was tested, and the switch fluorescence ratio was 1. CACTTTCGAC was tested, and the switch fluorescence ratio was 1.22. CACTTTGCCC showed a switch fluorescence ratio of 1.05. Work on CAGAAAACGT yielded a switch fluorescence ratio of 1.04. CAGAACCCTG was tested, and the switch fluorescence ratio was 1.03. CAGAACGCTA gave a switch fluorescence ratio of 5.22. Sequence CAGAAGACGT has a switch fluorescence ratio of 1.05. With CAGAATACTA the switch fluorescence ratio was 1.04. In the case of CAGAATCTAC, the switch fluorescence ratio is reported as 1.03. Work on CAGACAAGTG yielded a switch fluorescence ratio of 0.971. CAGACAAT gave a switch fluorescence ratio of 2.17. For CAGACATTG, the switch fluorescence ratio was 0.976. Work on CAGACCTCCA yielded a switch fluorescence ratio of 1.11. In the case of CAGACGACTA, the switch fluorescence ratio is reported as 1.19. CAGACGGCAG showed a switch fluorescence ratio of 0.915. With CAGAGAATAG the switch fluorescence ratio was 1.17. CAGAGCAGCA gave a switch fluorescence ratio of 1.15. For CAGAGCCATC, the switch fluorescence ratio was 1.06. For CAGAGCGCTG, the switch fluorescence ratio was 1.02. CAGAGGTGAT gave a switch fluorescence ratio of 1.06. With CAGAGTCCAC the switch fluorescence ratio was 0.979. In the case of CAGAGTGATT, the switch fluorescence ratio is reported as 1.03. CAGAGTTCCC was tested, and the switch fluorescence ratio was 0.976. Sequence CAGATAGCAA has a switch fluorescence ratio of 2.76. CAGATAGGTA was tested, and the switch fluorescence ratio was 1.01. CAGATCATAC showed a switch fluorescence ratio of 1.29. CAGATCCGAC was tested, and the switch fluorescence ratio was 1.1. For CAGATCTGTG, the switch fluorescence ratio was 0.976. CAGCAAAACT gave a switch fluorescence ratio of 2.13. CAGCAAGCAA was tested, and the switch fluorescence ratio was 6.26. CAGCAATTTT gave a switch fluorescence ratio of 1.54. Sequence CAGCAGCTTA has a switch fluorescence ratio of 1.83. CAGCATCGAG gave a switch fluorescence ratio of 1.13. For CAGCCCTGCT, the switch fluorescence ratio was 0.979. For CAGCCGGCGT, the switch fluorescence ratio was 1.06. Work on CAGCCGGGGG yielded a switch fluorescence ratio of 1.05. In the case of CAGCCTAGTA, the switch fluorescence ratio is reported as 1.05. Sequence CAGCCTCTGC has a switch fluorescence ratio of 1.03. CAGCGAACGA gave a switch fluorescence ratio of 1.11. With CAGCGATCGT the switch fluorescence ratio was 1.03. In the case of CAGCGCCCC, the switch fluorescence ratio is reported as 1.1. For CAGCGCCCGA, the switch fluorescence ratio was 1.03. CAGCGGAATT gave a switch fluorescence ratio of 1. CAGCGGCAAA showed a switch fluorescence ratio of 1.42. For CAGCGGGATG, the switch fluorescence ratio was 0.996. CAGCGGTGG gave a switch fluorescence ratio of 1.01. Sequence CAGCGTCTTC has a switch fluorescence ratio of 0.947. For CAGCGTGATG, the switch fluorescence ratio was 1. CAGCTAGATT gave a switch fluorescence ratio of 1.04. CAGCTGAGA was tested, and the switch fluorescence ratio was 1.01. CAGCTGGGAA was tested, and the switch fluorescence ratio was 0.993. With CAGCTGTTGA the switch fluorescence ratio was 1.04. In the case of CAGGAACCGG, the switch fluorescence ratio is reported as 1.02. CAGGACAT was tested, and the switch fluorescence ratio was 1.02. Sequence CAGGACTCCT has a switch fluorescence ratio of 1.09. CAGGACTTGA was tested, and the switch fluorescence ratio was 0.938. CAGGAGCCGC gave a switch fluorescence ratio of 1.08. With CAGGAGGCGT the switch fluorescence ratio was 0.971. With CAGGAGGGTC the switch fluorescence ratio was 0.933. With CAGGAGGTCC the switch fluorescence ratio was 0.996. Sequence CAGGAGTGTG has a switch fluorescence ratio of 1.01. CAGGAGTTG gave a switch fluorescence ratio of 1.01. CAGGATCGG was tested, and the switch fluorescence ratio was 0.978. Work on CAGGATGACA yielded a switch fluorescence ratio of 0.996. CAGGCAGTGG gave a switch fluorescence ratio of 1.01. In the case of CAGGCATTAA, the switch fluorescence ratio is reported as 1.05. For CAGGCCAGTC, the switch fluorescence ratio was 1.05. CAGGCCGCTT was tested, and the switch fluorescence ratio was 0.996. In the case of CAGGCGCATA, the switch fluorescence ratio is reported as 1.98. CAGGCGGGCG was tested, and the switch fluorescence ratio was 0.993. In the case of CAGGCTGGTG, the switch fluorescence ratio is reported as 1.07. CAGGCTGTGC showed a switch fluorescence ratio of 0.999. For CAGGGACCGC, the switch fluorescence ratio was 1.06. In the case of CAGGGACCGT, the switch fluorescence ratio is reported as 1.02. CAGGGCACAT showed a switch fluorescence ratio of 1.08. In the case of CAGGGCATGT, the switch fluorescence ratio is reported as 0.987. Work on CAGGGCCCTC yielded a switch fluorescence ratio of 1.03. CAGGGCTGTT was tested, and the switch fluorescence ratio was 1.02. Sequence CAGGGCTTTG has a switch fluorescence ratio of 0.981. Sequence CAGGGGTGCA has a switch fluorescence ratio of 0.991. With CAGGGTGTAT the switch fluorescence ratio was 1.01. In the case of CAGGGTTA, the switch fluorescence ratio is reported as 0.966. CAGGTAGCTA showed a switch fluorescence ratio of 0.979. In the case of CAGGTAGGG, the switch fluorescence ratio is reported as 1. Sequence CAGGTCGGCA has a switch fluorescence ratio of 1.06. Work on CAGGTCGGGC yielded a switch fluorescence ratio of 1.01. Sequence CAGGTCTGGA has a switch fluorescence ratio of 1. CAGGTGGGCA was tested, and the switch fluorescence ratio was 0.96. CAGGTGTAGG gave a switch fluorescence ratio of 1.02. CAGGTTCAAG gave a switch fluorescence ratio of 0.987. Sequence CAGGTTGCCG has a switch fluorescence ratio of 0.994. With CAGGTTGTGA the switch fluorescence ratio was 1. For CAGGTTTTAT, the switch fluorescence ratio was 1.01. CAGGTTTTGA showed a switch fluorescence ratio of 0.993. With CAGTAACCGG the switch fluorescence ratio was 0.991. CAGTACGCC gave a switch fluorescence ratio of 1.02. Sequence CAGTACTGTA has a switch fluorescence ratio of 1. Sequence CAGTAGAAA has a switch fluorescence ratio of 0.998. CAGTAGACAG showed a switch fluorescence ratio of 1.01. CAGTAGATTT was tested, and the switch fluorescence ratio was 0.936. CAGTAGTTTA showed a switch fluorescence ratio of 1.01. For CAGTATAGTA, the switch fluorescence ratio was 0.969. Work on CAGTATCCCT yielded a switch fluorescence ratio of 1.04. In the case of CAGTATCCGA, the switch fluorescence ratio is reported as 1.01. Sequence CAGTCATGTT has a switch fluorescence ratio of 0.982. With CAGTCCCGTG the switch fluorescence ratio was 1.03. Work on CAGTCCCTTC yielded a switch fluorescence ratio of 1.05. CAGTCCTCCT gave a switch fluorescence ratio of 1.15. CAGTCCTTTT showed a switch fluorescence ratio of 1.02. For CAGTCTACTA, the switch fluorescence ratio was 1.05. Sequence CAGTCTAGAA has a switch fluorescence ratio of 0.959. CAGTCTCAGG gave a switch fluorescence ratio of 1.04. CAGTCTGTG gave a switch fluorescence ratio of 0.926. In the case of CAGTCTTATA, the switch fluorescence ratio is reported as 1.01. With CAGTGAAAAC the switch fluorescence ratio was 1.02. Work on CAGTGAGCAG yielded a switch fluorescence ratio of 0.947. CAGTGATGAT showed a switch fluorescence ratio of 1. In the case of CAGTGATTTT, the switch fluorescence ratio is reported as 1.03. Work on CAGTGCCATA yielded a switch fluorescence ratio of 0.975. CAGTGCTATA gave a switch fluorescence ratio of 1.05. CAGTGCTTT showed a switch fluorescence ratio of 0.962. CAGTGGACGA was tested, and the switch fluorescence ratio was 0.957. CAGTGGATAG was tested, and the switch fluorescence ratio was 0.998. Sequence CAGTGGCGT has a switch fluorescence ratio of 0.971. Work on CAGTGGGCGA yielded a switch fluorescence ratio of 1.04. In the case of CAGTGTTGTC, the switch fluorescence ratio is reported as 1.03. CAGTTAGTTA was tested, and the switch fluorescence ratio was 0.989. With CAGTTATAAG the switch fluorescence ratio was 0.989. Sequence CAGTTATAGA has a switch fluorescence ratio of 1.02. CAGTTCAGCT gave a switch fluorescence ratio of 1.04. In the case of CAGTTCCAAT, the switch fluorescence ratio is reported as 1.01.
